Results reported in PubChem BioAssay AID488969 (Vanderbilt High Throughput Screening Facility, 2010).
Whole data set: some 110,000 compounds, median “z-score” near -0.1, cut for the highest 2% near 2. Some of the results follow. Active and inactive are the calls of the source.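 How the source made its calls: active means z-score in the third read window above 3 or below -3; inactive means the rest.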

Molecular target: Metabotropic glutamate receptor 8 (Rattus norvegicus) (UniProt P70579)
Experiment: rat mGluR8 modulators via GIRK flux, primary screen, cell-based, thallium flux, HTS (AID 488969)
Conditions: HEK293 rat mGluR8, GIRK (G protein-gated inwardly rectifying potassium channel) thallium flux, FluoZin2; at 10 µM; stronger effect = higher value; submaximal glutamate (EC20) added with thallium

Chain of UniProt P70579 (P70579 whole entry, looked up): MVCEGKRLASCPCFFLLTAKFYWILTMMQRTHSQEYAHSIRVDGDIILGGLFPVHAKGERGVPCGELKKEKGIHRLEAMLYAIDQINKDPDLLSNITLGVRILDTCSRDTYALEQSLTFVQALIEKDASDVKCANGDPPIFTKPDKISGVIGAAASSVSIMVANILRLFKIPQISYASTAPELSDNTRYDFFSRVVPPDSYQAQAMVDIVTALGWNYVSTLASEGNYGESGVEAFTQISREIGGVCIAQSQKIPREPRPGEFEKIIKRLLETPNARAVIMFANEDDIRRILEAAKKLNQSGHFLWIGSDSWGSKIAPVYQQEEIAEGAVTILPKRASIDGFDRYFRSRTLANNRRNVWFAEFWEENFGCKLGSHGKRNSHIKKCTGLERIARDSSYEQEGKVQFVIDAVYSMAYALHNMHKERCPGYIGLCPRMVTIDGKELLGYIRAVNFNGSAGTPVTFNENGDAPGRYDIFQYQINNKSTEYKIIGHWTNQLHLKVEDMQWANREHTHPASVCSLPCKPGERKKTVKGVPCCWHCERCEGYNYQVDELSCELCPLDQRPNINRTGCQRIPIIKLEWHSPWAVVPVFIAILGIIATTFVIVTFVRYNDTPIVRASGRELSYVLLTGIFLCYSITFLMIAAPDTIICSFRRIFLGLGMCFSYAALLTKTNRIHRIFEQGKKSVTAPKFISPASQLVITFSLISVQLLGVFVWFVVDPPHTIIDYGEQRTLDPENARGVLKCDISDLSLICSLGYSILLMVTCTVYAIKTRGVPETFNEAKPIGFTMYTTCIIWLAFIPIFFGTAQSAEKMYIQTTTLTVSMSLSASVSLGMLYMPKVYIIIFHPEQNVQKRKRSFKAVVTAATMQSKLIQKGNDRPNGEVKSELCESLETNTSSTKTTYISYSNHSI

Compound | z-score
CCOC(=O)N1CCN(C(=O)c2cc(C)no2)CC1 | -0.139
O=C(CSc1nnc(-c2ccc(S(=O)(=O)N3CCCC3)cc2)o1)NCc1ccccc1 | 0.0515
COc1ccccc1Nc1nc(N)nc(CN2CCC(Cc3ccccc3)CC2)n1 | 0.165
CCNC(=O)CN(Cc1ccccc1)S(=O)(=O)c1ccccc1 | 0.149
COC(=O)C(C)Sc1nc2c(cnn2-c2ccccc2)c(=O)[nH]1 (configuration not stated) | -0.615
CCOC(=O)C1=C(C)Nc2ncnn2C1c1cccs1 (configuration not stated) | -0.864
COc1ccccc1-c1nnc(SCC(=O)N2CCOCC2)n1-c1ccccc1 | -0.262
CN(C)S(=O)(=O)c1ccc(Cl)c(NC(=O)CSc2nc3c(cc2C#N)C(=O)CCC3)c1 | -0.272
CCSc1nnc(-c2ccc(Cl)cc2)c2ccccc12 | 0.0767
O=C(CC1CCS(=O)(=O)C1)NC1CCCCC1 (configuration not stated) | -0.567
CCOC(=O)C(CC)n1cnc2c(cnn2-c2ccc(Cl)cc2)c1=O (configuration not stated) | 0.0226
CCCCn1c(=NC(=O)c2ccc3c(c2)OCO3)c(C#N)cc2c(=O)n3cccc(C)c3nc21 | -0.383
CCN(CC)S(=O)(=O)c1ccc2[nH]cc(C(=O)NCCc3ccc(OC)c(OC)c3)c(=O)c2c1 | -0.577
COc1cc(/C=C(\C#N)c2nc3ccccc3[nH]2)ccc1Oc1ccc([N+](=O)[O-])cn1 | 0.0357
COC(=O)c1ccccc1NC(=O)c1ccc(COc2cccc3ccccc23)o1 | -0.084
CN(CC(O)CN)CC(O)CN1CCCCC1 (configuration not stated) | -0.365
CC(C)(C)n1nnnc1C(c1cccs1)N1CCN(C(=O)c2ccco2)CC1 (configuration not stated) | 0.00972
Cc1ccccc1N/C(=C(/C(Cl)=C(Cl)Cl)[N+](=O)[O-])n1nnc2ccccc21 | -0.704
O=C(c1cc2ccccc2c(=O)o1)N1CCCC1 | 0.79
COc1cc(/C=N/NC(=O)C(Cc2c[nH]c3ccccc23)NC(=O)OCC(C)C)cc([N+](=O)[O-])c1O (configuration not stated) | -0.166
CCOC(=O)c1ccccc1NC(=O)c1cc(S(=O)(=O)N2CCOCC2)ccc1F | -0.214
CCN1CCN(CCCOc2ccc(-c3ccccc3)cc2)CC1 | active: 4.56

Compound | z-score
COc1ccccc1OCCOc1ccc(/C=N/n2cnnc2)cc1 | -0.299
COc1ccc(C(=O)NCc2nnc(SCC(=O)Nc3cccc(C(F)(F)F)c3)o2)cc1OC | 0.0268
O=C(N/N=C/C=C/c1ccccc1[N+](=O)[O-])c1cc(-c2cccnc2)nc2ccccc12 | -0.621
O=C(CSc1nc2sc3c(c2c(=O)[nH]1)CCCC3)NCCO | 1.54
Cc1cc(-c2nnc(SCC(=O)c3ccc(F)cc3)o2)no1 | 0.273
O=C(COC(=O)c1ccc(CO)cc1)NCc1cccs1 | 0.0223
COc1cc(/C=N/NC(=O)CC23CC4CC(CC(C4)C2)C3)cc(Br)c1OCC(=O)N(C)C | -0.225
Cc1cc(N2CCCC2=O)cc(C)c1CN1C(=O)c2ccccc2C1=O | 0.439
O=C(NC1CCCCC1)N1CCN(C2CCCCC2)CC1 | -0.263
CCOC(=O)N/N=C\c1sccc1C | 0.0198
CC1=C(C)C(=O)N(c2ccccn2)C1=O | 1.3
CCOC(=O)N1CCC(NC(=O)CCc2c(C)nc3ncnn3c2C)CC1 | -0.107
O=C(CSc1nc(Nc2ccccc2)nc(N2CCOCC2)n1)Nc1ccccc1Cl | -0.0891
CCSc1nc(O)c(C2OC(=O)c3c2ccc(OC)c3OC)c(=O)n1-c1ccccc1 (configuration not stated) | 0.0226
N#C/C(=C(/O)COC(=O)Cc1c[nH]c2ccccc12)c1nc2ccccc2[nH]1 | -0.819
Cn1c(C(=O)N2COCC2(C)C)cc2c(=O)n3ccccc3nc21 | 0.578
O=C(NCc1ccc2c(c1)OCO2)c1cccc(C(=O)NCc2ccc3c(c2)OCO3)c1 | -0.492
COc1ccc(S(=O)(=O)Nc2ccccn2)cc1OC | -0.302
COC(=O)C1=C(C)NC(C)=C(C(=O)OC)C1c1ccc(NC(C)=O)cc1 | -0.268
Cc1nn(C)cc1NC(=O)c1nn(C)cc1[N+](=O)[O-] | -0.0975
CCOC(=O)c1ccc(NC(=O)CCOc2ccccc2)cc1 | 1.6
CC(=O)N1CCN(C2c3cccc4cccc(c34)C2NS(=O)(=O)c2ccccc2)CC1 (configuration not stated) | 1.58

Compound | z-score
COc1cc(NC(=O)C2CCN(S(=O)(=O)c3cccnc3)CC2)cc(OC)c1OC | 0.263
CCn1c(CCn2c3ccccc3c3ccccc32)n[nH]c1=S | -0.105
Cc1nnc(NC(=O)c2cccc(Br)c2)s1 | 0.388
CC(NC(=O)CSC(=S)N(C)C)C12CC3CC(CC(C3)C1)C2 (configuration not stated) | -0.229
C/C(=N\NC(=S)NCCc1ccccc1)c1ccc(C#N)cc1 | 0.203
O=C(NC1CCCCC1)N1CCN(C(c2ccccc2)c2ccccc2)CC1 | -0.157
N=c1scc(-c2ccccc2)n1/N=C/c1ccco1 | -0.0997
Cn1ccnc1SCc1nc2c(cnn2-c2ccccc2)c(=O)[nH]1 | 0.234
NC(=O)CCC(NS(=O)(=O)c1ccc(Cl)cc1)C(=O)NCc1ccc(Cl)cc1 (configuration not stated) | 0.871
COC(=O)c1ccc(N2CCN(S(=O)(=O)c3ccc(Br)cc3)CC2)c([N+](=O)[O-])c1 | -0.0472
O=C(c1ccc(F)cc1)n1ccc(-c2cnc(-c3ccccc3)s2)n1 | -0.292
CCNC(=O)COC(=O)CNC(=O)c1cc(Cl)cc([N+](=O)[O-])c1 | -0.0822
CCN(CC)CCN1C(=O)C(=O)/C(=C(/O)c2ccc(F)cc2)C1c1cccnc1 (configuration not stated) | -0.378
CN1CCN(S(=O)(=O)c2cc([N+](=O)[O-])ccc2N2CCCCCC2)CC1 | 0.095
O=c1c2cc(-c3ccccc3)sc2ncn1-n1cccc1 | -0.00252
Cc1ccc(-c2ccc(CCC(=O)O)n2Cc2ccco2)cc1 | -0.00553
COc1ccc(NS(=O)(=O)c2cc(C)ccc2NC(=O)c2cc(C)oc2C)cc1 | -0.849
CCOC(=O)c1c(-c2ccc(Cl)cc2)cn2ccccc12 | -0.133
O=C(Nc1ccc(Cl)cc1)NC1CCCc2ccccc21 (configuration not stated) | 0.0936
Cc1ccc2[nH]cc(CCNC(=O)c3ccc([N+](=O)[O-])cc3)c2c1 | -0.58
O=[N+]([O-])c1cc(C(F)(F)F)ccc1NCCc1c[nH]c2ccccc12 | -0.0868
CCCc1nnc(NC(=O)C(C)N2C(=O)C3C4C=CC(C4)C3C2=O)s1 (configuration not stated) | -0.121

Compound | z-score
CC(C)CCNC(=O)CSc1nc2ccsc2c(=O)n1NC(=O)c1ccccc1 | -0.0204
CC12C(=O)N(c3ccc(OC(=O)c4ccco4)cc3)C(=O)C1C1c3ccccc3C2c2ccccc21 (configuration not stated) | -0.124
CCC(C)c1ccccc1OCCCCN1CCCC1 (configuration not stated) | 0.173
O=C1OCCC1Sc1nnc(-c2cccc(Br)c2)o1 (configuration not stated) | -1.17
COc1cccc(-c2csc(NC(=O)C3CC3)n2)c1 | -0.417
CCOc1cccc(C(=O)NC(=S)Nc2cccc(C)c2)c1 | 0.426
CN(C)c1nc(NS(=O)(=O)c2ccc(Cl)cc2)nc(N(C)C)n1 | 0.395
O=C(OCc1ccc(C(=O)c2ccccc2)cc1)c1cccc(-c2nnc(-c3ccccc3)o2)c1 | -0.18
Cc1ccc(N2CCN(C(=O)CN3C(=O)c4ccccc4C3=O)CC2)cc1 | 0.113
Nc1nc(NCc2ccccc2)nc(Nc2cccc(F)c2)c1[N+](=O)[O-] | -0.183
CC(=O)N1CSCC1C(=O)N1CCN(c2ccc(N3CCOCC3)nn2)CC1 (configuration not stated) | 0.156
CC(C)C(C)(C#N)NC(=O)CSc1nnc(-c2ccncc2)n1Cc1ccccc1 (configuration not stated) | 0.023
COc1cc(/C=N/NC(=O)c2cccs2)ccc1OCc1ccccc1 | 0.0363
Cc1cc(C)n(-c2nc3c(c(=O)[nH]c(=O)n3C)n2Cc2ccccc2)n1 | -0.146
CC(C)(C)n1nnnc1C(c1cccs1)N1CCN(Cc2ccccc2)CC1 (configuration not stated) | -0.135
c1ccc(C(c2ccccc2)N2CCN(Cc3nnnn3C3CCCC3)CC2)cc1 | -0.35
COc1ccccc1N1CCN(c2nc(-c3ccccc3)cc(C(F)(F)F)n2)CC1 | 0.995
CCn1c(C)nc2cc(S(=O)(=O)N3CCCC3)ccc21 | -0.177
Cc1ccc(N(Cc2cc3cc(C)ccc3[nH]c2=O)S(=O)(=O)c2ccccc2)cc1 | 0.0448
COc1ccc(-n2c(C)nc3cc(C(=O)O)ccc32)cc1 | -0.104
CCn1c(SCC(=O)NC2CCCCC2)nc2c(c1=O)SC(C)C2 (configuration not stated) | 0.213
Cc1cc(C)nc(/N=C(\N)Nc2ccc([N+](=O)[O-])cc2)n1 | -0.477

Compound | z-score
COC(=O)c1[nH]c2ccccc2c1NC(=O)/C=C/c1ccc2c(c1)OCO2 | 0.563
COc1ccc2nc(-c3ccco3)c(-c3ccco3)nc2c1 | 0.264
O=C(COc1cccc(F)c1)Oc1ccc(C(=O)c2ccccc2)cc1 | -0.0427
O=C(CCN1C(=O)c2ccccc2C1=O)Nc1ccc(-c2nc3ccccc3s2)cc1 | -0.413
O=C(c1ccc2c(c1)C(=O)N(Cc1ccco1)C2=O)N1CCOCC1 | -0.379
COc1ccccc1/C=N/NC(=O)c1ccc(-c2ccccc2)cc1 | -0.445
COC(=O)c1noc(-c2ccc(OC)cc2)n1 | -1.48
Cc1cc(NS(=O)(=O)c2ccc(Nc3nc(-c4sc(N)nc4C)cs3)cc2)no1 | 0.0903
O=C(CNCc1ccc(F)cc1)Nc1ccccc1-c1ccccc1 | -0.509
Clc1ccc(-c2nnc(C3CCCCC3)o2)cc1 | 0.225
O=C(NCc1cccs1)c1cc(-c2ccccc2)on1 | 0.293
Cc1ccc(C)c(N(C(=O)Cn2nnc(-c3cccs3)n2)C(C(=O)NC2CCCC2)c2ccncc2)c1 (configuration not stated) | 0.000716
Cc1c(C(=O)O)oc2c1/C(=N\O)CCC2 | -0.146
O=C(Nc1ccc(Cl)cc1)N(CCCN1CCOCC1)Cc1cccs1 | -0.0662
Cc1ccc(C)c(C(=O)COC(=O)c2cc([N+](=O)[O-])ccc2NCCO)c1 | 0.122
Cc1ccc(NC(=O)Cc2sc(C)nc2-c2ccc(C)cc2)cc1 | -0.143
CCCC/C(C)=N\NC(=O)CNS(=O)(=O)c1ccc([N+](=O)[O-])cc1 | -0.0725
O=C(NCc1ccccc1)C(c1ccccc1)N(Cc1ccc2c(c1)OCO2)C(=O)Cc1cccs1 (configuration not stated) | -0.626
O=C(O)c1ccc(NS(=O)(=O)c2ccc3c(c2)OCCO3)cc1 | 0.0717
